Experimental data as given in PubChem BioAssay AID1452 (National Center for Advancing Translational Sciences (NCATS), 2008).
Among all 150,000 compounds or so, about 190 (0.13%) were called active. This list was built around the results that the source calls inconclusive (neither active nor inactive); the mix of calls is not that of the screen. The call rests on the fitted dose curve; in most records, active means well fitted inhibition curve with a large enough effect; inconclusive means small, poorly fitted or top-dose-only effect; inactive means flat fitted curve, though single readings scatter. A potency beside an inconclusive call is a rough fit, not a confirmed value.

target: Polyunsaturated fatty acid lipoxygenase ALOX12 (Homo sapiens) (UniProt P18054); assay: qHTS Assay for Inhibitors of 12-hLO (12-human lipoxygenase); details: purified 12-hLO, xylenol orange hydroperoxide absorbance; series mostly up to 57.1 µM; activity change, negative = inhibition: at the top concentration; further: nearly all actives have a fitted effect of over 55% in size
Sequence of UniProt P18054 (P18054 whole entry, looked up): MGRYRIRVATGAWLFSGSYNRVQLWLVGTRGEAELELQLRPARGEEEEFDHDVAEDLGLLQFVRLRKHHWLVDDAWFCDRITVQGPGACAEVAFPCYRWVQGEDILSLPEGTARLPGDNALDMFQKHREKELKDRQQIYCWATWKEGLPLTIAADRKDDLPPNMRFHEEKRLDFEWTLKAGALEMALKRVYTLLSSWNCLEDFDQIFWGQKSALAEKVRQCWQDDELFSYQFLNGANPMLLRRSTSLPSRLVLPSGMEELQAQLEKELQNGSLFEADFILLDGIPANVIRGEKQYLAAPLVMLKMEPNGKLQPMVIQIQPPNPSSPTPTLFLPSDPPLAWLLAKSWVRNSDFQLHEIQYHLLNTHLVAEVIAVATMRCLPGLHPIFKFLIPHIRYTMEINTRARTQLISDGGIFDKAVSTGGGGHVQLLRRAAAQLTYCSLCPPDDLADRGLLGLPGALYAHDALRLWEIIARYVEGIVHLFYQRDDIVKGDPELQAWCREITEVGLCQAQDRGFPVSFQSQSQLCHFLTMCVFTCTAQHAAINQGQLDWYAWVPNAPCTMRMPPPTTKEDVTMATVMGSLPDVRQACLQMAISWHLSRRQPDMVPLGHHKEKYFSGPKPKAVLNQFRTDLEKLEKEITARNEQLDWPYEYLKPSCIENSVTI
Method in brief: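 Lipoxygenase turnover measured by absorbance at 573 and 405 nm after Fe-XO development. Human 12hLO 150 nM, arachidonate 40 uM, pH 7.0 Hepes buffer with detergent; 15 min compound preincubation, 30 min reaction.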
On the % scale 0 is the no-effect control and ±100 the full control effect; potency means the concentration at half of the fitted maximal effect; tags describe the fitted curve by direction and shape.

Potency, inconclusive:
CC(C)c1cc(C(=O)NNC(=S)NCc2ccco2)c(O)c(C(C)C)c1 28.2 µM [inhibitor, partial curve]
CC1=CC(C)(C)NC(=S)N1c1cccc(C)c1 31.6 µM [inhibitor, single point]
CCN(CC)S(=O)(=O)c1ccc(C)c(NC(=S)Nc2cccc(S(=O)(=O)N3CCCCCC3)c2)c1 39.8 µM [inhibitor, single point]
CC(CN1CCOCC1)OC(=O)c1ccc(Br)cc1 (stereo unspecified) 17.8 µM [inhibitor, partial curve]
COC1=CC(=O)C(O)=C/C1=C\C=C\c1ccccc1 2.51 µM [inhibitor, full curve, poor fit]
C=CCc1cccc(C=Nc2cc(Br)ccc2O)c1O 35.5 µM [inhibitor, single point]
C/C(=N\NC(=O)c1cc2c(s1)CCC(C)C2)c1ccncc1 (stereo unspecified) 0.708 µM [inhibitor, full curve]
CCOC(=O)C1=C(C)NC(=S)NC1/C=C/c1ccccc1 (stereo unspecified) 3.98 µM [inhibitor, full curve]
CCc1ccc(C2C(C#N)=C(N)SC(N)=C2C#N)cc1 31.6 µM [inhibitor, single point]
COc1ccc(C2=Nc3cc(C)ccc3OC2)cc1 14.1 µM [inhibitor, partial curve]
O=C(Cc1ccccc1)Nc1nc(=O)c2ccccc2s1 7.08 µM [inhibitor, partial curve]
CCCC(C(=O)O)N1C(=O)/C(=C/c2cccn2C)SC1=S (stereo unspecified) 25.1 µM [inhibitor, partial curve]
COc1ccc2[nH]c(=O)c(CNc3ccccc3)cc2c1 25.1 µM [inhibitor, partial curve]
c1ccc2c(c1)CC(N1CCN(c3cccc4c3OCCO4)CC1)C2 6.31 µM [inhibitor, single point]
COc1cc(C(=O)NC(=S)Nc2ccc(Cl)c(C(=O)O)c2)cc(OC)c1OC 22.4 µM [inhibitor, single point]
Cc1cc(SCC(=O)N/N=C/c2ccc(O)cc2O)c(C)cc1Br 0.631 µM [inhibitor, full curve, poor fit]
CCc1c(C#N)c(SCCC(=O)Nc2cccc(OC)c2)nc2c1C(=O)CC(C)(C)C2 8.91 µM [inhibitor, single point]
O=C1S/C(=C\C=C\c2ccco2)C(=O)N1c1ccc(O)cc1 22.4 µM [inhibitor, single point]
O=[N+]([O-])c1ccc(Cl)c(C2Nc3cccc4cccc(c34)N2)c1 15.8 µM [inhibitor, partial curve]
CC(C)Oc1ccc(Br)cc1/C=N\NC(N)=S 25.1 µM [inhibitor, single point]
CCC(C)c1ccc(NC(=S)Nc2ccc(OC)c(OC)c2)cc1 (stereo unspecified) 39.8 µM [inhibitor, single point]
COc1ccccc1-n1cnc2cc(NS(=O)(=O)c3ccc(Br)cc3)ccc21 2.82 µM [inhibitor, full curve]
Cc1ccc(NC(=S)NCCc2ccccc2)c(C)c1 35.5 µM [inhibitor, single point]
COc1cc(NC(=S)NC(=O)c2ccc(C)cc2C)ccc1NC(=O)c1cccs1 3.98 µM [inhibitor, partial curve]
Cc1ccc(-c2oc3ccccc3c(=O)c2O)cc1 0.501 µM [inhibitor, full curve, poor fit]
O=C1c2ccccc2C(=O)c2c(O)c(O)cc(O)c21 3.55 µM [inhibitor, partial curve]
Cc1ccc(C(=O)NC(=S)Nc2ccccc2C(F)(F)F)cc1 15.8 µM [inhibitor, partial curve]
O=C(CC1=NCCNC(c2ccccc2)C1)c1ccccc1O (stereo unspecified) 17.8 µM [inhibitor, partial curve]
N#CC1=C(N)Oc2n[nH]c(-c3cccs3)c2C1C1CCCCC1 (stereo unspecified) 35.5 µM [inhibitor, single point]
Cc1cc(O)c(/C=N/Nc2ccccc2)c(=O)o1 15.8 µM [inhibitor, partial curve]
Cc1ccc(CN(CC(=O)N/N=C/c2ccco2)S(=O)(=O)c2ccc(C)cc2)cc1 25.1 µM [inhibitor, single point]
O=C(CNC(=S)NC(=O)c1ccccc1)c1ccccc1 25.1 µM [inhibitor, single point]
CCOC(=O)C1=C(C)NC(=S)NC1c1ccc(-c2ccc(Cl)cc2)o1 (stereo unspecified) 14.1 µM [inhibitor, partial curve]
CCNC(=S)N/N=C(\C)c1ccc(Cl)s1 22.4 µM [inhibitor, single point]
S=c1[nH]nc(-c2cc3ccccc3o2)n1Cc1ccccc1 12.6 µM [inhibitor, partial curve]
CCOC(=O)/C(=N\Nc1cccc(C(F)(F)F)c1)N(CCOC)CCOC 2.24 µM [inhibitor, partial curve]
COc1cc(C(=O)NC(=S)Nc2cccc(-c3cc4ccccc4oc3=O)c2)cc(OC)c1OC 22.4 µM [inhibitor, partial curve]
Cc1ccc(NC(=S)NNc2ccc([N+](=O)[O-])cc2S(=O)(=O)Nc2ccccc2C(=O)O)cc1C 10 µM [inhibitor, partial curve]
CCOC(=O)c1c(-c2ccc(C)cc2)csc1NC(=S)NC(=O)c1ccccc1 28.2 µM [inhibitor, partial curve]
O=C(O)C1=CCCN(CCON=C(c2ccccc2)c2ccccc2)C1 6.31 µM [inhibitor, single point]
COc1ccccc1NC(=S)Nc1ccccn1 25.1 µM [inhibitor, single point]
COc1cc(NC(=S)Nc2ccccn2)cc(OC)c1 39.8 µM [inhibitor, single point]
Cc1conc1NC(c1cccs1)c1ccc2cccnc2c1O (stereo unspecified) 2.24 µM [inhibitor, full curve]
COc1ccc(Nc2nc(N3CCCCC3)c3ccccc3n2)cc1 35.5 µM [inhibitor, single point]
N#Cc1c(N2CCCC(O)C2)nc(N)c2c(N)nc3c(c12)CC(=O)N3C12CC3CC(CC(C3)C1)C2 (stereo unspecified) 17.8 µM [inhibitor, partial curve]
C/C(CC(=O)Nc1ccc(Cl)cc1Cl)=N\NC(N)=S 1 µM [inhibitor, full curve]
O=C(COc1ccccc1)n1nc(-c2ccc(Cl)cc2)nc1NCc1ccco1 8.91 µM [inhibitor, single point]
N#C/C(=C\c1ccc(O)c(O)c1)C(=O)NCc1ccccc1 25.1 µM [inhibitor, partial curve, poor fit]
Cc1cc2c(cc1C)N(C(=O)CSC1=NCCS1)C(C)(C)c1ssc(=S)c1-2 28.2 µM [inhibitor, single point]
Cc1ccc2oc(-c3cccc(NC(=S)NC(=O)/C=C/c4ccco4)c3)nc2c1 31.6 µM [inhibitor, partial curve]

Potency, active:
Cc1ccc(N/C=C/C(=O)c2ccc(C)cc2)cc1 2 µM
Cc1ccc(S(=O)(=O)NNc2ccccc2)cc1 15.8 µM

Activity change, negative = inhibition, inactive:
Cc1cc(=O)oc2ccc(OCC(=O)N3CCc4ccccc43)cc12 -2.67%
CCn1c2ccc(C)cc2c2nc3cc(C(=O)O)ccc3nc21 -4.98%
CCOc1ccc(C(=O)COC(=O)CC)cc1 -6.03%
Cc1cc(C)nc(Sc2ccc(/C=C(\C#N)C(=O)Nc3ccccc3)o2)n1 -1.63%
O=c1oc(-c2cc3ccccc3o2)nc2sc3c(c12)CCCC3 4.11%
COc1ccc(S(=O)(=O)N2CCCCC2)cc1NC(=O)CSc1ncnc2ccccc12 -4.93%
O=C(CCCO)N/N=C/c1ccccc1[N+](=O)[O-] -1.57%
COc1ccc(CCNC(=S)Nc2ccc(OC)cc2)cc1 -14.6%
O=C(Nc1cc(S(=O)(=O)N2CCCCC2)ccc1Cl)c1ccccc1NS(=O)(=O)c1ccc(F)cc1 -3.17%
O=C(NCc1ccc(Cl)cc1)c1cnn2ccccc12 -0.769%
CC(=O)Nc1ccc(SCC(=O)c2cc(C)n(CC(F)(F)F)c2C)cc1 3.31%
COc1ccc(C(=O)Nc2nc3ccc(S(C)(=O)=O)cc3s2)cc1 3.08%
O=C(CSCc1ccc(Cl)cc1)N/N=C/c1ccc(OCC(=O)Nc2ccccc2)cc1 -4.4%
COc1ccc(-c2noc(CCC(=O)Nc3nc4ccccc4s3)n2)cc1 6.91%
Cn1c(=O)c([N+](=O)[O-])c(NCCc2ccccc2)c2ccccc21 -4.92%
C=CC(=O)OCCCCCCOC(=O)C=C 1.47%
CCc1cc2c(NC(C(=O)O)C(C)C)ncnc2s1 (stereo unspecified) 0.347%
O=C(NC(N1CCCCCC1)C(Cl)(Cl)Cl)c1ccccc1Cl (stereo unspecified) 1.79%
CCN(CC)S(=O)(=O)c1ccc(N2CCOCC2)c(NC(=O)Cc2cccc3ccccc23)c1 -0.322%
